The source of these data is the supplement of paper PMC10037445.

In experiment [1] the test system is RAW-Dual. The experiment can be described thus: IRF Lucia reporter activity, fold change vs agonist alone; cytotoxicity flag (confluency mask): not cytotoxic; higher = enhanced IRF activity. In short, it runs like this: (§1)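 Cytotoxic wells were those whose IncuCyte confluency was below 70% of agonist controls in both mask sets. The cells were RAW-Dual macrophages at 50,000 cells/well in DMEM on 384-well plates, dosed with 50 nL of library stock by pin tool, stimulated with a PRR agonist 1 h later, and kept at 37 °C, 5% CO2 for 20 hours. IRF and NF-κB reporter activity, as fold change over agonist-alone wells, came from supernatant read by QuantiLuc luminescence and QuantiBlue absorbance, respectively.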

Experiment [2] has as its system RAW-Dual. As to the kind of experiment: IRF Lucia reporter activity, fold change vs agonist alone; higher = enhanced IRF activity. The following applies: library stock concentration (final ~1000-fold dilution): 10 mM, agonist: MPLA (TLR4) […]. The procedure, abridged:
as §1

For experiment [3], the system named is RAW-Dual. The experiment can be described thus: IRF Lucia reporter activity, fold change vs agonist alone; cytotoxicity flag (confluency mask): cytotoxic (confluency <70% of control); higher = enhanced IRF activity. The procedure, abridged: as §1
[4] abbreviates: agonist: 3'3'-cGAMP (STING) 10 ug/mL.
[5] abbreviates: cytotoxicity flag (confluency mask): not cytotoxic.
Where [6] appears, read: cytotoxicity flag (confluency mask): cytotoxic (confluency <70% of control).

Where “and” joins values, the source holds several entries; their conditions need not be identical. Identical values can stand only once. Over roughly 2,900 compounds, “IRF Lucia reporter activity, fold change vs agonist alone” has its median near 0.9; the highest 2% begin near 2.8. The list shows a part of the results.

As to `Cc1c[nH]c(C=C2C(=O)Nc3ccccc32)c1CCC(=O)O` (library stock concentration (final ~1000-fold dilution): 10 mM), the “IRF Lucia reporter activity” value in experiment [1] (setting [4]) is 0.186; in experiment [1] (agonist: LPS (TLR4) 0.1 ug/mL) it was 0.728.
As to `O=C(CCCCCCCC(=O)NCCO)NCCO` (library stock concentration (final ~1000-fold dilution): 10 mM), the figures for the “IRF Lucia reporter activity” value in experiment [1] (setting [4]) and in experiment [1] (agonist: LPS (TLR4) 0.1 ug/mL) were 0.904 and 1.07, respectively.
As for `CCN(CC)Cc1ccc(C(=O)N(CCc2ccccc2OC)C2CCNC2)cc1` (stereo not given) (library stock concentration (final ~1000-fold dilution): 10 mM), the “IRF Lucia reporter activity” value in experiment [1] (setting [4]) was 0.105; in experiment [1] (agonist: LPS (TLR4) 0.1 ug/mL), 0.599.
Take `CCN(CC)Cc1ccc(C(=O)N(CCc2ccccc2OC)C2CCNC2)cc1` (stereo not given): in experiment [2] (setting [5]), the “IRF Lucia reporter activity” value was found to be 0.837.
Consider `CCN(CCCc1ccccc1)CCCc1ccccc1.O=C(O)CC(O)(CC(=O)O)C(=O)O`, for which the “IRF Lucia reporter activity” value in experiment [2] (setting [6]) is 1.11.
Regarding `CCN(CCCc1ccccc1)CCCc1ccccc1.O=C(O)CC(O)(CC(=O)O)C(=O)O` (library stock concentration (final ~1000-fold dilution): 10 mM), the entries for the “IRF Lucia reporter activity” value in experiment [3] (setting [4]) and in experiment [3] (agonist: LPS (TLR4) 0.1 ug/mL) were 0.709 and 0.898, respectively.
In the case of `Cc1cc(CS(=O)(=O)c2ccccc2)cc(OCc2ccc(CN3CCCC3CO)cc2)c1` (stereo not given) (library stock concentration (final ~1000-fold dilution): 10 mM), the “IRF Lucia reporter activity” value in experiment [1] (setting [4]) turned out to be 0.272; in experiment [1] (agonist: LPS (TLR4) 0.1 ug/mL), 1.27.
For `Cc1cc(CS(=O)(=O)c2ccccc2)cc(OCc2ccc(CN3CCCC3CO)cc2)c1` (stereo not given), in experiment [2] (setting [5]), the “IRF Lucia reporter activity” value came out at 1.35.
As for `CCc1cc(Nc2nccc(-c3c(-c4ccc(OC)c(C(=O)Nc5c(F)cccc5F)c4)nc4ccccn34)n2)c(OC)cc1N1CCC(N2CCN(S(C)(=O)=O)CC2)CC1` (library stock concentration (final ~1000-fold dilution): 10 mM), the “IRF Lucia reporter activity” value in experiment [1] (setting [4]) turned out to be 0.724; in experiment [1] (agonist: LPS (TLR4) 0.1 ug/mL) it was 1.28.
For the compound `CCc1cc(Nc2nccc(-c3c(-c4ccc(OC)c(C(=O)Nc5c(F)cccc5F)c4)nc4ccccn34)n2)c(OC)cc1N1CCC(N2CCN(S(C)(=O)=O)CC2)CC1`, in experiment [2] (setting [5]), the “IRF Lucia reporter activity” value is 1.06.
For `Cc1nc(Nc2n[nH]c3c2CN(C(=O)NC(CN(C)C)c2ccccc2)C3(C)C)c2sccc2n1` (stereo not given), the “IRF Lucia reporter activity” value in experiment [2] (setting [6]) amounted to 0.0215.
With `Cc1nc(Nc2n[nH]c3c2CN(C(=O)NC(CN(C)C)c2ccccc2)C3(C)C)c2sccc2n1` (stereo not given) (library stock concentration (final ~1000-fold dilution): 10 mM), the “IRF Lucia reporter activity” value was 0.0178 in experiment [3] (setting [4]) and 0.0152 in experiment [3] (agonist: LPS (TLR4) 0.1 ug/mL).
Regarding `O=C1c2cccc3c2C(CCC3)CN1C1CN2CCC1CC2` (stereo not given) (library stock concentration (final ~1000-fold dilution): 10 mM), the “IRF Lucia reporter activity” value is 0.379 in experiment [1] (setting [4]) and 0.888 in experiment [1] (agonist: LPS (TLR4) 0.1 ug/mL).
As for `O=C1c2cccc3c2C(CCC3)CN1C1CN2CCC1CC2` (stereo not given), the “IRF Lucia reporter activity” value in experiment [2] (setting [5]) is 0.982.
On to `O=C(Nc1ccccc1C(=O)NC1CCCCNC1=O)c1cc2ccccc2s1` (stereo not given) (library stock concentration (final ~1000-fold dilution): 10 mM), for which the “IRF Lucia reporter activity” value in experiment [1] (setting [4]) is 0.887; in experiment [1] (agonist: LPS (TLR4) 0.1 ug/mL) it was 2.75.
Turning to `NC(=O)C1CCC2CN1C(=O)N2OS(=O)(=O)O` (stereo not given) (library stock concentration (final ~1000-fold dilution): 10 mM), the “IRF Lucia reporter activity” value in experiment [1] (setting [4]) is 1.1; in experiment [1] (agonist: LPS (TLR4) 0.1 ug/mL), 1.21.
Turning to `NC(=O)C1CCC2CN1C(=O)N2OS(=O)(=O)O` (stereo not given), the “IRF Lucia reporter activity” value in experiment [2] (setting [5]) amounted to 1.13.
On the same count and under the same terms, the figure for `CC(=O)O/N=C1/C(=O)N(Cc2cc(Cl)ccc2Cl)c2ccc(Cl)cc21` is 0.945.
For `CC(=O)O/N=C1/C(=O)N(Cc2cc(Cl)ccc2Cl)c2ccc(Cl)cc21` (library stock concentration (final ~1000-fold dilution): 10 mM), the “IRF Lucia reporter activity” value is 0.257 in experiment [1] (setting [4]) and 0.868 in experiment [1] (agonist: LPS (TLR4) 0.1 ug/mL).
On to `CC(C)(C#N)c1cc(Cn2cncn2)cc(C(C)(C)C#N)c1`, for which, in experiment [2] (setting [5]), the “IRF Lucia reporter activity” value turned out to be 1.06.
For `CC(C)(C#N)c1cc(Cn2cncn2)cc(C(C)(C)C#N)c1` (library stock concentration (final ~1000-fold dilution): 10 mM), the “IRF Lucia reporter activity” value in experiment [1] (setting [4]) came to 0.986; in experiment [1] (agonist: LPS (TLR4) 0.1 ug/mL), 0.315.
As for `COc1cc2nccc(Oc3ccc(NC(=O)Nc4cc(C)on4)c(Cl)c3)c2cc1OC`, in experiment [2] (setting [5]), the “IRF Lucia reporter activity” value came to 0.536.
With `COc1cc2nccc(Oc3ccc(NC(=O)Nc4cc(C)on4)c(Cl)c3)c2cc1OC` (library stock concentration (final ~1000-fold dilution): 10 mM), the “IRF Lucia reporter activity” value in experiment [1] (setting [4]) was 0.246; in experiment [1] (agonist: LPS (TLR4) 0.1 ug/mL), 0.506.
The corresponding values for `CC(C)CC(NC(=O)C(O)C(N)Cc1ccccc1)C(=O)O` (stereo not given) (library stock concentration (final ~1000-fold dilution): 10 mM) are 1.02 and 0.897.
With `CC(C)CC(NC(=O)C(O)C(N)Cc1ccccc1)C(=O)O` (stereo not given), the “IRF Lucia reporter activity” value in experiment [2] (setting [5]) is 0.954.
Take `C=CCNC(N)=S` (library stock concentration (final ~1000-fold dilution): 10 mM): the “IRF Lucia reporter activity” value in experiment [1] (setting [4]) was 1.08 and 0.787; in experiment [1] (agonist: LPS (TLR4) 0.1 ug/mL), 1.14 and 1.03.
In the case of `C=CCNC(N)=S`, the “IRF Lucia reporter activity” value in experiment [2] (setting [5]) stood at 1.03.
Still for that read-out and setting: to `COc1cccc(-c2cc(=O)c3ccccc3o2)c1N` belongs 1.06.
As to `COc1cccc(-c2cc(=O)c3ccccc3o2)c1N` (library stock concentration (final ~1000-fold dilution): 10 mM), the figures for the “IRF Lucia reporter activity” value in experiment [1] (setting [4]) and in experiment [1] (agonist: LPS (TLR4) 0.1 ug/mL) were 0.722 and 1.13, respectively.
